PMC11369174, “Proteome-scale characterisation of motif-based interactome rewiring by disease mutations” (Molecular Systems Biology, 2024)
Substitutions are numbered along the chain they refer to. These are yes or no findings as the source states them, for the method shown. For part of these data: In cells and extracts the contact can be indirect. Some entries that bind do so weakly or less than the wild type. For part of these data: Tags and fused reporters may be left off the sequences shown.

Chains of the proteins cited; added tags and fusions are not shown. Residues count along the entry.
UniProt P00519, residues 61-121: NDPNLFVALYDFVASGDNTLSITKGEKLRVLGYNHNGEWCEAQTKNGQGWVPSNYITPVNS
UniProt O14936, residues 12-276: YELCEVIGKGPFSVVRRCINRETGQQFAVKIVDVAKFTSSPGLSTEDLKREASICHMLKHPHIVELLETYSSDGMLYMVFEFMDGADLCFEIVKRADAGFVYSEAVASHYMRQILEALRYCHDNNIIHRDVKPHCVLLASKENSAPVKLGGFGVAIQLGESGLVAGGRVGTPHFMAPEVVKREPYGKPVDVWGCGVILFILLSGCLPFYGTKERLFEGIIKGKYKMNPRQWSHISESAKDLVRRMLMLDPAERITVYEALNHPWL
UniProt Q92793, residues 587-666: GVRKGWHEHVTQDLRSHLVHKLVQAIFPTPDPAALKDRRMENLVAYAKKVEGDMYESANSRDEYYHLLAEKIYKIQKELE
UniProt A9QM74: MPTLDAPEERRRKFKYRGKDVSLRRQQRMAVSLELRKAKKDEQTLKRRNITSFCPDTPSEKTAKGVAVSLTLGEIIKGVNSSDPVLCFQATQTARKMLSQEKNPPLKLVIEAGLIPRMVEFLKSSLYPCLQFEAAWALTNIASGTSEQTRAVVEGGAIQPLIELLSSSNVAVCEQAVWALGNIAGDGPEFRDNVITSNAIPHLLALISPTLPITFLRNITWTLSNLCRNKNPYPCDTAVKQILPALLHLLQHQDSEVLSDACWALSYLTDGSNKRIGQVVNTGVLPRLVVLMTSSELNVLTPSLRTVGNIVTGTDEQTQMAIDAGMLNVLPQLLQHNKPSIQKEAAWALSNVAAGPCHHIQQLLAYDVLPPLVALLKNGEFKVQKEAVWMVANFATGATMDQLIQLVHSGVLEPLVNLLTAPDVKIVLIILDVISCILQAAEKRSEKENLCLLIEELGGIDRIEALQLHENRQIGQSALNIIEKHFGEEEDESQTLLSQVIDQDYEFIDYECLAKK
UniProt P52294: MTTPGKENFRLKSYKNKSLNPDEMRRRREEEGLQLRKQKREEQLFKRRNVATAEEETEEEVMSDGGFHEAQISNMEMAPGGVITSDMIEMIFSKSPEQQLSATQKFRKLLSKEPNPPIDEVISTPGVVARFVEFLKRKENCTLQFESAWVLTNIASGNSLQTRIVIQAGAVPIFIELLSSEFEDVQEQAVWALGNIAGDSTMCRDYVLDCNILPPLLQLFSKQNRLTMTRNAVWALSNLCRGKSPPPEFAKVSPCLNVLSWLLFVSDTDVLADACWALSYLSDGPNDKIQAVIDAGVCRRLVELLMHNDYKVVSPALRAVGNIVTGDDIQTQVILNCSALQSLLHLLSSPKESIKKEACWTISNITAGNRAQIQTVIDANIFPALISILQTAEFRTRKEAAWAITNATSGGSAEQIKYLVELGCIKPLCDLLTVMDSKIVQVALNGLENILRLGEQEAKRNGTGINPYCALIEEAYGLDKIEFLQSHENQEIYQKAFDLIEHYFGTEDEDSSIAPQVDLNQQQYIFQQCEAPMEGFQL
UniProt O00505: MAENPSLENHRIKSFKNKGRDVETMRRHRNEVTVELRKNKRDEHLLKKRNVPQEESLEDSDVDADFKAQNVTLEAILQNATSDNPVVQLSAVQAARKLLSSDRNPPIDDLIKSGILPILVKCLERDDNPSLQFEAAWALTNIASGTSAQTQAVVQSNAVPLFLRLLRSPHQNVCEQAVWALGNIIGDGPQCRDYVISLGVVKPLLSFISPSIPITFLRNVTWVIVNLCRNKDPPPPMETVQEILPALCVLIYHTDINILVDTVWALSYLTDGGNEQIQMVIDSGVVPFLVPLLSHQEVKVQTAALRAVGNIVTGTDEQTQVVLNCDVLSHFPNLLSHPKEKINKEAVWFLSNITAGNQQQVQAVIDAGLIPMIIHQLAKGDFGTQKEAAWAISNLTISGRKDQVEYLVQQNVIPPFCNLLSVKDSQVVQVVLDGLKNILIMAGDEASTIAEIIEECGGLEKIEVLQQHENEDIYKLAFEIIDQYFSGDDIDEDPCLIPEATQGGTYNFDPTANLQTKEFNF
UniProt O00629: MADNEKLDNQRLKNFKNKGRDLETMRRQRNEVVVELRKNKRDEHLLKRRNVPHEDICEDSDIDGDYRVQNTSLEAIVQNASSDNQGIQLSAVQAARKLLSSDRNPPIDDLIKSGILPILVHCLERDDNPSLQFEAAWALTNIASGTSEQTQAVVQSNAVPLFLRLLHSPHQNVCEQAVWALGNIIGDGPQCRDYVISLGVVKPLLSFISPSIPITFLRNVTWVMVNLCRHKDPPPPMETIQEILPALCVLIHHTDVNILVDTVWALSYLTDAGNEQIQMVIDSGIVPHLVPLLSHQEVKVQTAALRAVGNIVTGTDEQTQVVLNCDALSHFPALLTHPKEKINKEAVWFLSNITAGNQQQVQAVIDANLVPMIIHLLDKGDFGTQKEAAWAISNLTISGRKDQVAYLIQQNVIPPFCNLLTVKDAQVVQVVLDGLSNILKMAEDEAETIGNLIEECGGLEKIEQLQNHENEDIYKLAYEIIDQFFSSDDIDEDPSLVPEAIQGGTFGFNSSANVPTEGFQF

Experiments:
3BP2 FITC-… peptide = biological target: T1, 3BP2 FITC-… peptide; assay: fluorescence polarisation; saturation experiment: dilution series of the protein domain added to 10 nM FITC-labelled peptide; 50 mM sodium phosphate buffer pH 7.4, 0.05% Tween (protein in 50 mM sodium phosphate, 1 mM DTT; for CASK kinase domain also 100 mM NaCl); technical triplets; both purified
T1 sequence (peptide, FITC-labelled (printed as FITC- before the sequence)): HPPAYPPPPVPT

PER2 FITC-… peptide = biological target: T2, PER2 FITC-… peptide; assay: as above
T2 sequence (peptide, FITC-labelled (printed as FITC- before the sequence)): LQDPIWLLMADA

TCF3 FITC-… peptide = biological target: T3, TCF3 FITC-… peptide; assay: as above
T3 sequence (peptide, FITC-labelled (printed as FITC- before the sequence)): DKELSDLLDFS

[1] = biological target: T4, EGFP-CDC45 wild-type (human) (UniProt O75419); assay: co-IP; GFP-Trap of EGFP-tagged bait from lysate of cells co-transfected with T7-KPN (HEK293T in Fig. 5F); lysis 45 min on ice; blot for T7
T4 sequence: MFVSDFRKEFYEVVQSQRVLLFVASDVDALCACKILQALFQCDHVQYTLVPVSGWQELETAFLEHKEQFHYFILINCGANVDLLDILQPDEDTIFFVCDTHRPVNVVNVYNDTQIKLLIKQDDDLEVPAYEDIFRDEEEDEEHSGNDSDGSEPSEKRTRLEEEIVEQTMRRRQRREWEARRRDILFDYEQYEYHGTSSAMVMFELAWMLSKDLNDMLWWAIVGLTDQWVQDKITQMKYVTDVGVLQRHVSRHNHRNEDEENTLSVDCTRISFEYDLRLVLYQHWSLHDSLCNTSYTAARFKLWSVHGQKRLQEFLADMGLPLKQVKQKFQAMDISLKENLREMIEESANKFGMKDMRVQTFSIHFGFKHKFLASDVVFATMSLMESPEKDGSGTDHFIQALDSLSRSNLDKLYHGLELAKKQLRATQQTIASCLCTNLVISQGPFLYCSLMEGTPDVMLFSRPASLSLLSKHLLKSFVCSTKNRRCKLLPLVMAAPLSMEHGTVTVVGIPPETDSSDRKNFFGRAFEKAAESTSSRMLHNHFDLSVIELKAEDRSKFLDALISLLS

EGFP-CDC45 R157C (human) = biological target: T5, EGFP-CDC45 R157C (human) (UniProt O75419); assay: as above
T5 sequence: T4 sequence with R157C

[2] = biological target: T6, EGFP-tagged wild-type ABRAXAS1 (BRCA1-A complex subunit Abraxas 1) (human) (UniProt Q6UWZ7); assay: co-IP; GFP-Trap of EGFP-tagged wild-type ABRAXAS1 or CDC45 from lysates of co-transfected cells, blot for T7-tagged KPNA; lysis in 100 mM NaCl, 50 mM Tris pH 7.4, 0.05% NP-40, 45 min on ice; single repeat for the negative ones, three biological replicates for CDC45 with KPNA7
T6 sequence: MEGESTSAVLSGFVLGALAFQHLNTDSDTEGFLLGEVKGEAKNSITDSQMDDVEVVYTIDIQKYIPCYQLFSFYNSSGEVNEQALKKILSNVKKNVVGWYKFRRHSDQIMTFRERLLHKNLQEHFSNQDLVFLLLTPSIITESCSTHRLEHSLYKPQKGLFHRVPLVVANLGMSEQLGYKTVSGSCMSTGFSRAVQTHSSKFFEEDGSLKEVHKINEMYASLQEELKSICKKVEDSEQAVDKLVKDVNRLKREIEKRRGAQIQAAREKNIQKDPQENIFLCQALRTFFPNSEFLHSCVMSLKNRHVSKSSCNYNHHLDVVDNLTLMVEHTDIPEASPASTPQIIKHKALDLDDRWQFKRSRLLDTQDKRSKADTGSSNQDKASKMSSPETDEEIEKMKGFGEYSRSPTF

[3] = biological target: T7, EGFP-tagged wild-type CDC45 (Cell division control protein 45) (human) (UniProt O75419); assay: as above
T7 sequence: T4 sequence

Substance | binding [2] | binding [3] | also measured
ABL1 SH3 domain (from UniProt P00519 61-121) (domain or fragment) | – | – | binding (3BP2 FITC-… peptide): binds
CASK kinase domain (from UniProt O14936 12-276) (domain or fragment) | – | – | binding (PER2 FITC-… peptide): binds
CREBBP KIX domain (from UniProt Q92793 587-666) (domain or fragment) | – | – | binding (TCF3 FITC-… peptide): binds
T7-KPNA7 (from UniProt A9QM74 1-516) | – | – | binding [1]: binds; binding (EGFP-CDC45 R157C (human)): no binding
T7-tagged KPNA1 (from UniProt P52294 1-538) | no binding | no binding | –
T7-tagged KPNA3 (from UniProt O00505 1-521) | no binding | no binding | –
T7-tagged KPNA6 (from UniProt O60684 1-536) | no binding | no binding | –

Second part, led by results:

binding [2] | binding [3] | Substance | also measured
no binding | no binding | T7-tagged KPNA4 (importin subunit alpha-3) (from UniProt O00629 1-521) | –
no binding | binds | T7-tagged KPNA7 (importin subunit alpha-8) (from UniProt A9QM74 1-516) | –
